# Experimental data reported in the supplement of paper PMC7826260.
# Some of the results follow. Viral Rep nickase domains cut single-stranded DNA in vitro (3 µM enzyme, 1 h, 37 °C); shown is the middle of each 90-letter strand. A value is the log2 ratio of uncut reads to the pool without enzyme; uncut sequences lie near 0, cut ones below; no hit call is given. Reads are scaled to the total, so uncut sequences can rise above 0 when many others are cut.
# Tests used:
# Experiment in all cases: uncleaved DNA left, log2 of reads against the no-enzyme library (log2 ratio); higher = less cleavage (more negative = more Rep cleavage of the k-mer); sequences stand for … in CTCGTCCG…ACCGGAGA
# [1] = tested on: T1, Rep nickase domain of Muscovy duck circovirus
# T1 sequence (protein, residues 1-111, tag omitted): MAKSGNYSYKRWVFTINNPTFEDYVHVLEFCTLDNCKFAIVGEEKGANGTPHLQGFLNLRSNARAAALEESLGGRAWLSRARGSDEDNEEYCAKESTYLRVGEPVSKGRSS
# Protocol: (§1)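 A pool of 90-nt single-stranded DNAs with seven random bases just before the constant AC of the nick site (name = the seven bases) was cut by 3 µM recombinant His6-SUMO-tagged Rep nickase domain (300 nM DNA, 50 mM HEPES pH 8.0, 50 mM NaCl, 1 mM MnCl2, 1 h, 37 °C, three replicates). Uncut DNA was amplified and sequenced.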
# [2] = tested on: T2, Rep nickase domain of banana bunchy top virus
# T2 sequence (protein, residues 1-94, tag omitted): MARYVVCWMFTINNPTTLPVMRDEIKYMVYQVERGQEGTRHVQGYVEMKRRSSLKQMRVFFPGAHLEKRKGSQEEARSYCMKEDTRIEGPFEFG
# Protocol: as §1
# [3] = tested on: T3, Rep nickase domain of cabbage leaf curl virus
# T3 sequence (protein, residues 1-116, tag omitted): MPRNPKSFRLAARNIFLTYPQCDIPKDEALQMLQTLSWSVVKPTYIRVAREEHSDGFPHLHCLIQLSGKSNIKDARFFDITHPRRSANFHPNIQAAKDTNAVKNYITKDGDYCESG
# Protocol: as §1
# [4] = tested on: T4, Rep nickase domain of chickpea chlorotic dwarf virus
# T4 sequence (protein, residues 1-124, tag omitted): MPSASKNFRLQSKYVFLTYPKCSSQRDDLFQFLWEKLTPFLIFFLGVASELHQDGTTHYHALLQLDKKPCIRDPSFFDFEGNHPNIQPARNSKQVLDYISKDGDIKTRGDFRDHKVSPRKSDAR
# Protocol: as §1
# [5] = tested on: T5, Rep nickase domain of faba bean necrotic yellows virus
# T5 sequence (protein, residues 1-98, tag omitted): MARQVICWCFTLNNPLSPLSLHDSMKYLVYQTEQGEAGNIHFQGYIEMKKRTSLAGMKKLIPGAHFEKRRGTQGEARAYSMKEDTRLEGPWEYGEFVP
# Protocol: as §1
# [6] = tested on: T6, Rep nickase domain of maize striate mosaic virus
# T6 sequence (protein, residues 1-117, tag omitted): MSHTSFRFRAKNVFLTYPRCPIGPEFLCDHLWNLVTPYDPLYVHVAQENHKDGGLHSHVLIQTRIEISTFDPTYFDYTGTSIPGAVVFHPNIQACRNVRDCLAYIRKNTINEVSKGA
# Protocol: as §1
# [7] = tested on: T7, Rep nickase domain of porcine circovirus 2
# T7 sequence (protein, residues 2-116, tag omitted): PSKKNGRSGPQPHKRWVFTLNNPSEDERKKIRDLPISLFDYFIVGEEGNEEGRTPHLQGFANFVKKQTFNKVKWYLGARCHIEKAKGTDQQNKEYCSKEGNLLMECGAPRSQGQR
# Protocol: as §1
# [8] = tested on: T8, Rep nickase domain of tomato golden mosaic virus
# T8 sequence (protein, residues 1-124, tag omitted): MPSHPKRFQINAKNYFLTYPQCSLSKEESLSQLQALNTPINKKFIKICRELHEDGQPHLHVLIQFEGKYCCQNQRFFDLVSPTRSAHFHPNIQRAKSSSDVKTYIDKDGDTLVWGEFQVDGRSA
# Protocol: as §1
# [9] = tested on: T9, Rep nickase domain of tomato yellow leaf curl virus
# T9 sequence (protein, residues 1-136, tag omitted): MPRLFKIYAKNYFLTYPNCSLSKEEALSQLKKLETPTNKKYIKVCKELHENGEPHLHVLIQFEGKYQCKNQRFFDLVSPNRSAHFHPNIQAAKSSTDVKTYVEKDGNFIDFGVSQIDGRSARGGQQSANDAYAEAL
# Protocol: as §1
# [10] = tested on: T10, Rep nickase domain of wheat dwarf virus
# T10 sequence (protein, residues 1-137, tag omitted): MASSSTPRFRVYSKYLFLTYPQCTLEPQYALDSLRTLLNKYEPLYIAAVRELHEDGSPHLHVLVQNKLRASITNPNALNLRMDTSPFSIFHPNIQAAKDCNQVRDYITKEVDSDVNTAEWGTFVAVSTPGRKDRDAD
# Protocol: as §1
Sequence,uncleaved DNA left (log2) [1],uncleaved DNA left (log2) [2],uncleaved DNA left (log2) [3],uncleaved DNA left (log2) [4],uncleaved DNA left (log2) [5],uncleaved DNA left (log2) [6],uncleaved DNA left (log2) [7],uncleaved DNA left (log2) [8],uncleaved DNA left (log2) [9],uncleaved DNA left (log2) [10]
CAAGTCC,-0.0627,-0.0357,-0.119,-0.55,-0.105,-0.441,0.00273,-0.0647,-0.107,-0.0283
TAATTCG,0.0482,-0.00945,-1.08,-0.445,0.138,-0.954,0.155,-0.0186,0.0811,0.0567
AGCTACC,0.0684,-0.0456,0.000963,-0.0307,-0.0029,0.435,-0.37,0.0422,-0.0202,-0.0201
GCCTGAT,-0.0519,-0.119,0.0978,0.47,-0.123,0.873,-1.05,0.0776,-0.0863,0.00388
CCTGACG,-0.131,-0.174,-0.817,-0.646,-0.138,-1.08,0.0305,-0.214,-0.124,-0.113
CAATAAG,0.173,0.152,-0.668,0.121,0.00156,-0.406,0.294,-0.00306,0.0762,0.0485
TACACCT,0.0439,-0.0991,-1.7,-2.79,0.115,-0.273,-1.33,-0.0649,0.0324,-0.0572
TCTGTCT,0.0664,-0.0351,-0.0731,-1.57,0.0497,-0.68,-0.115,-0.00909,-0.0547,-0.139
AAACCCT,-0.0282,-0.115,-0.372,-2.31,-0.0108,0.204,-0.518,-0.135,-0.0198,0.0147
ATCGATG,-0.00639,-0.0693,-0.237,0.409,0.157,0.505,0.0562,-0.0422,-0.264,-0.0328
CTTAGTC,0.15,0.166,-0.0194,-0.0631,0.0292,-0.758,0.163,-0.049,0.137,0.116
CTTACAA,0.00241,0.106,-0.148,-2.11,0.0487,-0.47,0.115,0.0357,0.0765,0.191
ACAGCCG,0.0706,-0.108,-0.549,0.684,-4.61e-05,-0.0496,0.144,-0.0344,0.0156,-0.0391
CGAATAC,0.0688,-0.0554,-0.0589,-0.401,0.0272,-0.436,0.105,-0.0891,0.0313,-0.071
GCTGGCC,0.0757,0.034,0.164,0.784,0.106,1.15,0.152,0.129,0.0875,0.146
ACACGTC,0.0417,-0.0435,-0.313,-0.506,0.13,-0.862,0.128,0.0246,-0.0752,-0.0136

Sequence,uncleaved DNA left (log2) [1],uncleaved DNA left (log2) [2],uncleaved DNA left (log2) [3],uncleaved DNA left (log2) [4],uncleaved DNA left (log2) [5],uncleaved DNA left (log2) [6],uncleaved DNA left (log2) [7],uncleaved DNA left (log2) [8],uncleaved DNA left (log2) [9],uncleaved DNA left (log2) [10]
TGACCTA,0.127,-0.0654,0.16,0.165,0.0978,0.555,-0.0924,-0.0618,0.0562,0.129
TTTCATT,-1.05,-0.0752,-0.272,-2.28,-0.126,-0.435,-2.69,-0.344,-0.0112,-0.0585
GCTCAGC,-0.0104,-0.0158,-0.227,0.0915,-0.132,-0.648,0.0567,0.0585,-0.0256,-0.0975
GGGGAGT,0.0212,0.0656,0.815,2.01,0.0305,2.33,0.17,0.0707,0.0522,0.254
GCGGTAT,0.04,0.0601,0.73,1.42,-0.101,1.89,0.252,0.119,0.0992,0.21
GCCTGGA,-0.0875,-0.126,0.00415,0.416,-0.071,0.128,0.025,-0.0537,-0.0471,-0.134
CTGAGTC,0.0706,0.0195,-0.0863,-0.118,0.00938,-0.576,0.0537,-0.0319,0.0266,0.0222
GGCAGGT,0.0545,0.0125,0.498,1.23,0.0279,1.74,0.116,0.0224,0.16,0.176
GTGTCTG,-0.0646,0.0321,0.0845,0.637,0.0138,1.21,0.0485,0.0321,-0.0205,0.068
ACCTAGA,-0.0483,-0.0137,-0.579,-0.39,-0.00483,-1.1,-0.0327,0.00248,-0.0523,-0.196
GGCACGC,0.0143,0.0657,0.603,1.32,0.0675,1.72,0.145,0.0451,0.0576,0.176
ACCACGT,0.0203,-0.126,0.0143,-0.36,-0.0777,-0.622,0.0885,-0.0317,-0.0471,-0.0925
TTCTAAT,-2.97,-0.159,-0.156,-0.927,0.17,-0.14,-3.5,0.0457,0.0883,0.0628
GGTCCGC,-0.03,-0.102,0.298,0.806,-0.102,0.971,0.0477,0.0811,0.0314,0.0746
GAGAAGG,0.106,0.0188,0.289,0.858,0.0721,0.69,0.0558,0.183,0.0442,0.149
